The other results are listed elsewhere or left out.
Tests used:
Test in all cases: glycan array binding signal (z-score within array); higher = stronger binding
Settings in all cases: glycan notation: IUPAC condensed, linker removed
Gal(a1-3)Gal = target: Gal(a1-3)Gal
Procedure, shortened: (§1)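 Glycan array binding is given as a within-array Z-score, which can be read as non-binding when negative. The arrays, 3228 of them, came from the Consortium for Functional Glycomics database and were retained only where the protein sequence was available. Z-scores were averaged across arrays of the same protein sequence at different concentrations or buffers and across linkers.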

Gal(a1-3)Gal(b1-3)GlcNAc = target: Gal(a1-3)Gal(b1-3)GlcNAc
Procedure, shortened: as §1

[1] = target: Gal(a1-3)Gal(b1-3)GlcNAc(b1-2)Man
Procedure, shortened: as §1

[2] = target: Gal(a1-3)Gal(b1-3)GlcNAc(b1-2)Man(a1-3)[Gal(a1-3)Gal(b1-3)GlcNAc(b1-2)Man(a1-6)]Man(b1-4)GlcNAc(b1-4)GlcNAc
Procedure, shortened: as §1

[3] = target: Gal(a1-3)Gal(b1-3)GlcNAc(b1-3)GalNAc
Procedure, shortened: as §1

[4] = target: Gal(a1-3)Gal(b1-3)GlcNAc(b1-6)GalNAc
Procedure, shortened: as §1

[5] = target: Gal(a1-3)Gal(b1-3)[Fuc(a1-4)]GlcNAc(b1-2)Man(a1-3)[Gal(a1-3)Gal(b1-3)[Fuc(a1-4)]GlcNAc(b1-2)Man(a1-6)]Man(b1-4)GlcNAc(b1-4)GlcNAc
Procedure, shortened: as §1

Gal(a1-3)Gal(b1-4)Glc = target: Gal(a1-3)Gal(b1-4)Glc
Procedure, shortened: as §1

Gal(a1-3)Gal(b1-4)GlcNAc = target: Gal(a1-3)Gal(b1-4)GlcNAc
Procedure, shortened: as §1

[6] = target: Gal(a1-3)Gal(b1-4)GlcNAc(b1-2)Man
Procedure, shortened: as §1

[7] = target: Gal(a1-3)Gal(b1-4)GlcNAc(b1-2)Man(a1-3)[Gal(a1-3)Gal(b1-4)GlcNAc(b1-2)Man(a1-6)]Man(b1-4)GlcNAc(b1-4)GlcNAc
Procedure, shortened: as §1

[8] = target: Gal(a1-3)Gal(b1-4)GlcNAc(b1-3)GalNAc
Procedure, shortened: as §1

[9] = target: Gal(a1-3)Gal(b1-4)GlcNAc(b1-6)GalNAc
Procedure, shortened: as §1

[10] = target: Gal(a1-3)Gal(b1-4)[Fuc(a1-3)]GlcNAc
Procedure, shortened: as §1

[11] = target: Gal(a1-3)Gal(b1-4)[Fuc(a1-3)]GlcNAc(b1-2)Man(a1-3)[Gal(a1-3)Gal(b1-4)[Fuc(a1-3)]GlcNAc(b1-2)Man(a1-6)]Man(b1-4)GlcNAc(b1-4)GlcNAc
Procedure, shortened: as §1

Gal(a1-3)GalNAc = target: Gal(a1-3)GalNAc
Procedure, shortened: as §1

[12] = target: Gal(a1-3)[Gal(a1-4)]Gal(b1-4)GlcNAc
Procedure, shortened: as §1

[13] = target: Gal(a1-4)Gal(b1-3)GlcNAc(b1-2)Man(a1-3)[Gal(a1-4)Gal(b1-3)GlcNAc(b1-2)Man(a1-6)]Man(b1-4)GlcNAc(b1-4)GlcNAc
Procedure, shortened: as §1

Gal(a1-4)Gal(b1-4)Glc = target: Gal(a1-4)Gal(b1-4)Glc
Procedure, shortened: as §1

Gal(a1-4)Gal(b1-4)GlcNAc = target: Gal(a1-4)Gal(b1-4)GlcNAc
Procedure, shortened: as §1

[14] = target: Gal(a1-4)Gal(b1-4)GlcNAc(b1-2)Man(a1-3)[Gal(a1-4)Gal(b1-4)GlcNAc(b1-2)Man(a1-6)]Man(b1-4)GlcNAc(b1-4)GlcNAc
Procedure, shortened: as §1

[15] = target: Gal(a1-4)Gal(b1-4)GlcNAc(b1-3)Gal(b1-4)Glc
Procedure, shortened: as §1

Gal(a1-4)GlcNAc = target: Gal(a1-4)GlcNAc
Procedure, shortened: as §1

Gal(a1-6)Glc = target: Gal(a1-6)Glc
Procedure, shortened: as §1

Gal(b1-2)Gal = target: Gal(b1-2)Gal
Procedure, shortened: as §1

Gal(b1-3)Gal = target: Gal(b1-3)Gal
Procedure, shortened: as §1

Gal(b1-3)Gal(b1-4)GlcNAc = target: Gal(b1-3)Gal(b1-4)GlcNAc
Procedure, shortened: as §1

Gal(b1-3)GalNAc = target: Gal(b1-3)GalNAc
Procedure, shortened: as §1

[16] = target: Gal(b1-3)GalNAc(a1-3)[Fuc(a1-2)]Gal(b1-4)Glc
Procedure, shortened: as §1

[17] = target: Gal(b1-3)GalNAc(a1-3)[Fuc(a1-2)]Gal(b1-4)GlcNAc
Procedure, shortened: as §1

Gal(b1-3)GalNAc(b1-3)Gal = target: Gal(b1-3)GalNAc(b1-3)Gal
Procedure, shortened: as §1

[18] = target: Gal(b1-3)GalNAc(b1-3)Gal(a1-4)Gal(b1-4)Glc
Procedure, shortened: as §1

[19] = target: Gal(b1-3)GalNAc(b1-4)Gal(b1-4)Glc
Procedure, shortened: as §1

[20] = target: Gal(b1-3)GalNAc(b1-4)[Neu5Ac(a2-3)]Gal(b1-4)Glc
Procedure, shortened: as §1

Gal(b1-3)GlcNAc = target: Gal(b1-3)GlcNAc
Procedure, shortened: as §1

[21] = target: Gal(b1-3)GlcNAc(a1-3)Gal(b1-4)GlcNAc
Procedure, shortened: as §1

[22] = target: Gal(b1-3)GlcNAc(a1-6)Gal(b1-4)GlcNAc
Procedure, shortened: as §1

Gal(b1-3)GlcNAc(b1-2)Man = target: Gal(b1-3)GlcNAc(b1-2)Man
Procedure, shortened: as §1

B1: DrGal9 (Danio rerio) (protein)
chain: MAFYQQPPYYNPRIPFSGPIQGGLQDGKSIIISGRVLPGANRFHVNLQCGSHSEANVALHFNPRYEDTDYVVNNSYLNRTWGSEERKYESPFAQGQTFTLQILVAQDKYKISTNGRHFMDYKHRIPFTQVDTVAVEGMVEVNSVAFQNPAGFIPPQAGYAPQYAVPPGCGFPAFPSAPNYTIPHKTVMNGGLHPGKNIVINGVVNPNAKSIIFNLCYRSGIAFHYNPRFDENVVVRNTNQMEKWGAEERFGGLPFHKGQPFQVTISCNPQHYNVFVNGKQEHTYKHRYTKLNDIDILEICGDLQLTSVQA
- glycan array binding signal (z-score) (Gal(a1-3)Gal): -0.376
- glycan array binding signal (z-score) (Gal(a1-3)Gal(b1-3)GlcNAc): -0.298
- glycan array binding signal (z-score) [1]: 0.337
- glycan array binding signal (z-score) [2]: -0.374
- glycan array binding signal (z-score) [3]: -0.365
- glycan array binding signal (z-score) [4]: -0.113
- glycan array binding signal (z-score) [5]: -0.296
- glycan array binding signal (z-score) (Gal(a1-3)Gal(b1-4)Glc): -0.218
- glycan array binding signal (z-score) (Gal(a1-3)Gal(b1-4)GlcNAc): -0.204
- glycan array binding signal (z-score) [6]: -0.167
- glycan array binding signal (z-score) [7]: 2.89
- glycan array binding signal (z-score) [8]: -0.124
- glycan array binding signal (z-score) [9]: -0.342
- glycan array binding signal (z-score) [10]: -0.399
- glycan array binding signal (z-score) [11]: -0.323
- glycan array binding signal (z-score) (Gal(a1-3)GalNAc): -0.367
- glycan array binding signal (z-score) [12]: -0.303
- glycan array binding signal (z-score) [13]: -0.382
- glycan array binding signal (z-score) (Gal(a1-4)Gal(b1-4)Glc): -0.356
- glycan array binding signal (z-score) (Gal(a1-4)Gal(b1-4)GlcNAc): -0.318
- glycan array binding signal (z-score) [14]: -0.247
- glycan array binding signal (z-score) [15]: -0.133
- glycan array binding signal (z-score) (Gal(a1-4)GlcNAc): -0.383
- glycan array binding signal (z-score) (Gal(a1-6)Glc): -0.411
- glycan array binding signal (z-score) (Gal(b1-2)Gal): -0.389
- glycan array binding signal (z-score) (Gal(b1-3)Gal): -0.35
- glycan array binding signal (z-score) (Gal(b1-3)Gal(b1-4)GlcNAc): 0.98
- glycan array binding signal (z-score) (Gal(b1-3)GalNAc): -0.351
- glycan array binding signal (z-score) [16]: -0.238
- glycan array binding signal (z-score) [17]: -0.169
- glycan array binding signal (z-score) (Gal(b1-3)GalNAc(b1-3)Gal): 0.047
- glycan array binding signal (z-score) [18]: -0.115
- glycan array binding signal (z-score) [19]: -0.117
- glycan array binding signal (z-score) [20]: -0.157
- glycan array binding signal (z-score) (Gal(b1-3)GlcNAc): -0.266
- glycan array binding signal (z-score) [21]: -0.244
- glycan array binding signal (z-score) [22]: -0.319
- glycan array binding signal (z-score) (Gal(b1-3)GlcNAc(b1-2)Man): -0.277

Source: the supplement of paper PMC8728848
